From the supplement of paper PMC9446081
The whole screen tested about 39,000 compounds, of which about 220 (0.56%) showed activity. The list shows a part of the results.

tested on: Escherichia coli K-12 BW25113; assay: relative growth (OD600 normalised to plate interquartile mean) (fraction); higher = less growth inhibition, active = 0.2 or less; details: 50 µM; LB; incubation time: overnight (16-24 h)
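Further: static incubation at 37 °C against the wild-type strain, values averaged over two biological replicates.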

Row | Structure (SMILES) | relative growth
1 | O=C(Nc1ccc([N+](=O)[O-])cc1Cl)c1cc(Cl)ccc1O | inactive: 0.88
2 | O=C1CCC(=O)N1Nc1ccccn1 | inactive: 0.821
3 | COc1cc(OC)c(C(=O)CCCN2CCCC2)c(OC)c1.Cl | inactive: 1.04
4 | Cc1cc(C(=O)Nc2cccc3c2O[C@H](CN(C)S(=O)(=O)c2cccs2)[C@@H](C)CN([C@@H](C)CO)C3=O)n(C)n1 | inactive: 1.02
5 | CN(C)CCCNc1ncnc(N)c1[N+](=O)[O-] | inactive: 0.985
6 | CC(C)NC(=O)Nc1ccc2c(c1)C(=O)N(C)[C@H]1CC[C@@H](CC(=O)NCc3ccc(F)cc3)O[C@@H]1CO2 | inactive: 1
7 | O=C(O)[C@H]1C2C(=O)N3CCCO[C@@H]3[C@]23C=C[C@H]1O3 (stereo partly drawn) | inactive: 1
8 | Cc1ccc(NC(=O)C[C@H]2NCCNC2=O)cc1 | inactive: 0.944
9 | Cc1noc(C)c1NC(=O)N(C)C[C@@H]1Oc2ccc(NC(=O)CCCN(C)C)cc2C(=O)N([C@H](C)CO)C[C@H]1C | inactive: 1.01
10 | C[C@@H]1CN([C@H](C)CO)C(=O)c2cccc(NC(=O)c3ccncc3)c2O[C@H]1CN(C)S(=O)(=O)c1ccccc1 | inactive: 1
11 | C[C@@H]1CN([C@H](C)CO)C(=O)c2cccc(NS(C)(=O)=O)c2O[C@@H]1CN(C)Cc1ccc2c(c1)OCO2 | inactive: 0.995
12 | COCCOC(=O)N1C(=O)[C@@]2(c3cc(C#CCCO)ccc31)[C@H](C(=O)N1CCc3cc(OC)c(OC)cc3C1)[C@H]1C(=O)O[C@H](c3ccccc3)[C@H](c3ccccc3)N1[C@@H]2c1ccccc1OCCO | inactive: 1.04
13 | C[C@H](CO)N1C[C@H](C)[C@H](CN(C)C(=O)Cc2ccncc2)Oc2ncc(C#CC3(O)CCCC3)cc2C1=O | inactive: 0.979
14 | C[C@@H]1CN([C@H](C)CO)C(=O)CCCn2cc(nn2)CO[C@@H]1CN(C)C(=O)Nc1cccc(Oc2ccccn2)c1 | inactive: 0.982
15 | C[C@@H]1CN([C@H](C)CO)C(=O)c2cc(NC(=O)Nc3ccc(C(F)(F)F)cc3)ccc2O[C@@H](C)CCCCO[C@H]1CN(C)S(=O)(=O)c1cccs1 | inactive: 1.05
16 | O=C(C[C@H]1C[C@H]2c3cc(NC(=O)C4CCOCC4)ccc3O[C@H]2[C@H](CO)O1)NCc1cc(F)ccc1F | inactive: 0.996
17 | C[C@H](CO)N1C[C@H](C)[C@@H](CN(C)C(=O)Nc2ccc(C(F)(F)F)cc2)OCCCC[C@H](C)Oc2ccc(NC(=O)NC3CCCCC3)cc2C1=O | inactive: 1.04
18 | Oc1cc(O)c2cc(O)c(-c3ccc(O)c(O)c3)[o+]c2c1.[Cl-] | inactive: 1.14
